Hit rate of the full screen: of about 420,000 compounds, about 50,000 (12%) were called active. This list was built around the results that the source calls inconclusive (neither active nor inactive); the mix of calls is not that of the screen. Calls follow the shape of the dose curve; as a rule, active = well fitted inhibition curve with a large enough effect; inconclusive = small, poorly fitted or top-dose-only effect; inactive = flat fitted curve, though single readings scatter. No potency is given beside an inconclusive call; the fits are too rough.
assay: qHTS for Inhibitors of human tyrosyl-DNA phosphodiesterase 1 (TDP1): qHTS in cells in presence of CPT; conditions: chicken DT40 Tdp1-/-;hTDP1 cells + 20 nM CPT, ATP luminescence, 48 h; activity change, negative = growth inhibition: at 46.2 µM (top of the series); also: nearly all actives have a fitted effect of over 55% in size
Summary of the method: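 Chicken DT40 Tdp1-/- cells stably complemented with human TDP1 were seeded at 400 cells/well in medium containing 20 nM camptothecin, exposed to pin-transferred compounds, and grown at 37 °C for at least 48 hr. Viability was read as ATP luminescence.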
% is scaled to controls: 0 for no effect and ±100 for the full control effect; potency is read from the fitted curve at half-maximal effect; tags tell the direction and shape of the fitted curve.

Row | SMILES | Potency | activity change, negative = growth inhibition
1 | COc1cc(NC(=O)c2cc3nc(C4CC4)cc(C(F)(F)F)n3n2)c(OC)cc1Cl | inconclusive [inhibitor, single point] | 
2 | O=C1CC(c2c(Cl)cccc2Cl)c2c(ccc3ccccc23)N1 (stereo not given) | inconclusive [inhibitor, single point] | 
3 | Fc1ccc(Nc2ncnc3sc4c(c23)CCC4)cc1 | inconclusive [inhibitor, single point] | 
4 | Clc1cc(Cl)cc(CN2CCSCC2)c1 |  | inactive: -7%
5 | C(=N\Nc1nc2ccccc2[nH]1)/c1ccc2c(c1)OCCO2 | inconclusive [inhibitor, partial curve, poor fit] | 
6 | CCOC(=O)N1CCN(C(=O)COC(=O)CNC(=O)c2ccc(C)cc2)CC1 |  | inactive: 18.4%
7 | COc1ccccc1-c1c(C)oc2c(CN3CCCCC3C)c(O)ccc2c1=O (stereo not given) |  | inactive: 2.64%
8 | OC(c1cccc(Cl)c1)c1nc(-c2ccoc2)cs1 (stereo not given) | inconclusive [inhibitor, single point] | 
9 | C=CCN1c2ccccc2[C@]23C[C@@H](C(=O)OC)N(C(=O)CC(C)C)C2=NC(C(=O)OC)=C(C(=O)OC)[C@H]13 | inconclusive [inhibitor, single point] | 
10 | Cc1cc(C2=CC(=O)C[C@H](c3ccc(F)cc3)C2)ccc1F | inconclusive [inhibitor, single point] | 
11 | CCn1c(=O)c(=O)n(CC)c2cc(S(=O)(=O)N3CCc4ccccc43)ccc21 | inconclusive [inhibitor, single point] | 
12 | Cc1ccc(C(=O)N2CC(C)OC(C)C2)c(Cl)c1 (stereo not given) | inconclusive [inhibitor, partial curve, poor fit] | 
13 | O=C(c1ccco1)N1CCN(Cc2c(F)cccc2Cl)CC1 | inconclusive [inhibitor, single point] | 
14 | COc1ccc(OC)c(NC(=O)N2CCCc3ccccc32)c1 | inconclusive [inhibitor, partial curve] | 
15 | COc1ccc(NC(=O)c2ccc3c(=O)n(-c4ccc(OC)cc4OC)c(=S)[nH]c3c2)c(OC)c1 | active: 23.1 µM | 
16 | Cc1ccc(NC(=O)C2CCN(S(=O)(=O)c3ccc4c(c3)CC(C)N4C(=O)C3CCC3)CC2)nc1 (stereo not given) | active: 16.4 µM | 
17 | CSCCC(NC(=O)c1ccco1)C(=O)NCCc1ccc(Cl)cc1 (stereo not given) |  | inactive: -5.66%
18 | CCNc1nc(Oc2ccc(C#N)cc2)cc(C(F)(F)F)n1 |  | inactive: -4.45%
19 | COc1ccccc1-n1cc(CN2CCc3onc(-c4ccc(Br)cc4)c3C2=O)nn1 | inconclusive [inhibitor, single point] | 
20 | COc1ccc(N=C2C(=O)N3c4c(cccc42)C(C)=CC3(C)C)cc1 | active: 5.17 µM | 
21 | Cc1[nH][nH]c(=O)c1C |  | inactive: -12.6%
22 | COc1ccc(-c2csc(/C=C/c3ccc4c(c3)OCO4)n2)cc1OC | inconclusive [inhibitor, single point] | 
23 | O=C(c1cccc(N2C(=O)C3C4C=CC(C4)C3C2=O)c1)N1CCN(c2ccc(F)cc2)CC1 (stereo not given) | inconclusive [inhibitor, single point] | 
24 | Cc1ccccc1-c1cc2nc(NCc3ccccc3)n(C)c(=O)c2s1 | active: 9.2 µM | 
25 | O=C1CC2(CCN(C(=O)c3ccccc3Cl)CC2)Oc2ccccc21 |  | inconclusive: -30.4% [inhibitor]

Row | SMILES | Potency | activity change, negative = growth inhibition
26 | COc1ccc(CNC(=O)c2cc(Nc3ccccc3C)nc3ccccc23)cc1 | inconclusive [inhibitor, single point] | 
27 | CCN(CC)C(=O)c1c[nH]c2ccc(S(=O)(=O)Nc3cc(C)cc(C)c3)cc2c1=O |  | inactive: -16.5%
28 | Cc1cccc(C(=O)Nc2ccc(Oc3cnccn3)cc2)c1 |  | inactive: -11.8%
29 | CCN(CC)c1ccc(CNCCCSc2nnnn2C)cc1 | inconclusive [inhibitor, single point] | 
30 | COCCNC(=O)c1ccccc1NC(=O)c1ccccc1N(C)S(C)(=O)=O |  | inactive: 21.6%
31 | O=Cc1c[nH]c2ccc(NC(=O)OCc3ccccc3)cc12 |  | inconclusive: -32.5% [inhibitor]
32 | Cc1nnc(N/N=C/c2cccs2)[nH]c1=O |  | inactive: -11.4%
33 | Cc1ccc(NS(=O)(=O)c2cc3c(cc2C)NC(=O)CO3)cc1 | inconclusive [inhibitor, single point] | 
34 | C#Cc1ccc(CN2CCCC(C(=O)Nc3ccccc3Oc3cccnc3)C2)cc1 (stereo not given) | inconclusive [inhibitor, single point] | 
35 | COc1ccc(Cl)cc1NC(=O)CSc1cn(CC(=O)N2CCCCC2)c2ccccc12 | active: 20.6 µM | 
36 | Cc1cc(C(=O)N/N=C/c2c(C)nn(-c3ccccc3)c2C)c(C)o1 |  | inactive: 6.09%
37 | O=C(COc1ccc(Br)cc1Br)NC(=S)Nc1cccc(CO)c1 |  | inconclusive: 7.4% [inhibitor]
38 | Cc1cc2cc(CNC(=O)c3ccc(S(=O)(=O)N4CCCCC4)cc3)ccc2[nH]1 | inconclusive [inhibitor, single point] | 
39 | Cc1oc2c(C)c(O)ccc2c(=O)c1-c1nncn1-c1ccccc1 |  | inactive: -26.6%
40 | CC(C)(C)c1ccc(CC(=O)N2CCC2(C)C(=O)NS(=O)(=O)c2cccs2)cc1 (stereo not given) |  | inactive: 0.671%
41 | COc1cccc(C2/C(=C(/O)c3cnn(-c4ccccc4)c3C)C(=O)C(=O)N2CCN(C)C)c1 (stereo not given) |  | inactive: 2.64%
42 | Cc1oc2ncn(C)c(=O)c2c1C(=O)N1CCN(c2cccc(C(F)(F)F)c2)CC1 |  | inactive: -18.5%
43 | O=C(CCCN1C(=O)C2CC=CCC2C1=O)Nc1ccccc1F (stereo not given) |  | inactive: 10.2%
44 | CCOC(=O)C1CCCN(C/C=C/c2ccccc2[N+](=O)[O-])C1 (stereo not given) |  | inactive: -6.79%
45 | CC(Nc1nc(-c2ccc(F)cc2)cs1)c1nc2cc(C(F)(F)F)ccc2n1CCCO (stereo not given) | inconclusive [inhibitor, single point] | 
46 | CCN(C(=O)CN1CCN(S(=O)(=O)c2cc(Cl)ccc2Cl)CC1)c1c(N)n(Cc2ccccc2)c(=O)[nH]c1=O |  | inactive: 13.2%
47 | CCc1ccc(NC(=O)CC2C(=O)NCCN2C(=O)c2ccc(F)cc2)cc1 (stereo not given) | inconclusive [inhibitor, single point] | 
48 | CC1CC(C)(C)NC(=S)N1CCCC(=O)Nc1ccc2c(c1)OCCO2 (stereo not given) |  | inactive: -6.73%
49 | Fc1ccc(COc2cccc(CNCc3ccncc3)c2)cc1 | inconclusive [inhibitor, full curve, poor fit] | 
50 | CCOc1c(OC)cccc1C1CC(=O)Nc2cc3c(cc21)OCCO3 (stereo not given) | inconclusive [inhibitor, single point] | 

Row | SMILES | Potency | activity change, negative = growth inhibition
51 | CCOc1ccc(S(=O)(=O)NCCC(=O)N2CC=C(c3ccccc3)CC2)cc1 | inconclusive [inhibitor, single point] | 
52 | O=C(Nc1ccc2c(c1)CN(Cc1ccco1)CC2)C1CCCO1 (stereo not given) |  | inactive: -28.6%
53 | COc1ccc(-[n+]2c(C)cc(/C=C3\Sc4ccccc4N3C)cc2C)cc1 | active: 0.0146 µM | 
54 | COc1ccc2c(CC(=O)NNC(=O)c3ccc(O)cc3)coc2c1 |  | inactive: 30.7%
55 | O=c1c2ccc(Cl)cc2nc(-c2cccc(C(F)(F)F)c2)n1O | active: 4.11 µM | 
56 | CCOC(=O)c1sc(NC(=O)CSc2nc3c(cc2C#N)CCCCCC3)c(C#N)c1C | active: 16.4 µM | 
57 | CC(=O)N=c1sc2ccccc2n1C |  | inactive: -10.7%
58 | COc1cccc(NC(=S)NNC(=O)Cn2nc([N+](=O)[O-])cc2C)c1 | inconclusive [inhibitor, single point] | 
59 | CC(NCC(O)COc1ccc(S(=O)(=O)N2CCOCC2)cc1)c1ccccc1 (stereo not given) |  | inactive: -11.9%
60 | Cc1nnc(SCc2cc(=O)[nH]c(N3CCCCC3)n2)s1 |  | inactive: -2.98%
61 | O=C(N/C(=C/c1ccc(Br)cc1)c1nc2ccccc2[nH]1)c1ccco1 | inconclusive [inhibitor, partial curve, poor fit] | 
62 | CCOc1ccccc1CNC(=O)c1ccc(CS(=O)Cc2cccc(Cl)c2)o1 (stereo not given) | inconclusive [inhibitor, single point] | 
63 | COc1cccc(C2CC(=O)Nc3c2ccc(C)c3C)c1OC (stereo not given) | inconclusive [inhibitor, single point] | 
64 | Cc1ccc(-c2csc3nc(C)n(-n4c(C)ccc4C)c(=O)c23)o1 | active: 20.6 µM | 
65 | CCc1cc(Cn2nc(-c3ccccc3)cc2C(=O)NCc2cccs2)on1 | active: 16.4 µM | 
66 | OCCOCCn1c(C(CO)Nc2nc(-c3ccc(Cl)cc3)cs2)nc2ccccc21 (stereo not given) | active: 29.1 µM | 
67 | Cc1cccc(OCC(O)Cn2c(N3CCCCC3)nc3c2c(=O)n(C)c(=O)n3C)c1 (stereo not given) | inconclusive [inhibitor, single point] | 
68 | CCN(C(=O)CSc1nnnn1C)C1CCCCC1 | inconclusive [inhibitor, partial curve] | 
69 | S=C(NCc1ccco1)Nc1cc(Cl)c(Cl)cc1Cl | inconclusive [inhibitor, partial curve, poor fit] | 
70 | CCN1C(=O)c2cccc3c(S(=O)(=O)Nc4ccccc4OC)ccc1c23 | active: 11.6 µM | 
71 | Cc1cc(C)c2c(N)c(C(=O)N3CCCCCC3)sc2n1 | active: 14.6 µM | 
72 | Cc1ccccc1CNC(=O)C(=O)NCC(c1ccco1)S(=O)(=O)c1cccs1 (stereo not given) | inconclusive [inhibitor, single point] | 
73 | Cc1ccc2c(c1)nnc1nnc(SCC(=O)O)n12 |  | inactive: -2.45%
74 | CSc1ccc(CNC(=O)Cn2nc(N3CCN(c4ccccc4)CC3)ccc2=O)cc1 | inconclusive [inhibitor, single point] | 
75 | O=C(N/N=C/c1sc(N2CCOCC2)nc1-c1ccccc1)c1ccccc1F | inconclusive [inhibitor, partial curve, poor fit] | 
